Test results from publication PMC5171805, “Engineering the surface properties of a human monoclonal antibody prevents self-association and rapid clearance in vivo” (Scientific Reports, 2016).

Target: human NGF (aa 1-118) (human)
Test: crystal structure; NGF:scFv complex, 3.4 Å, space group I4, two full complexes per asymmetric unit
Conditions: both partners purified

B1: human NGF ([…]) (ligand)
chain: not shown
modifications: non-covalent homodimer. Printed […] counted on the mature protein (offset 121), consistent with the 5JZ7 NGF chain. / non-covalent homodimer. Printed […] counted on the mature protein (offse)
- stoichiometry N: 2
